# Laboratory results from the supplement of paper PMC11417369.
# Some of the results follow.
# Tested on: PfHDP1 homeodomain (GST-tagged)
# Assay: gcPBM binding intensity (ln(normalized median fluorescence intensity)); higher = stronger DNA binding
# Method in brief: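 GST-tagged P. falciparum DNA-binding domains, expressed in E. coli (about 25 μg on average), were applied for 1 h to an Agilent 4 × 180k array of primer-extended double-stranded 36-bp intergenic genomic probes plus negative controls. The binding buffer was 1× PBS with 1% milk, 0.2 mg/ml BSA, 0.5% salmon testes DNA and 0.03% Triton X-100. Bound protein was detected with Alexa488 anti-GST antibody and scanned at 488 nm. Binding intensity is the highest Masliner-normalised natural-log median intensity across replicate spots of either probe orientation.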
row,Sequence,gcPBM binding intensity (ln)
1,AAGAAAATTAAATTAACACACATAAATATGTAAATA [CACACA_site6882],5.88
2,CCCTCTTCTCTCATATCACACATGTCATCCTTATCC [CACACA_site5078],7.18
3,TTTTGTTTGTTCGTGACTACATTATGTTGTAAATAC [CACACA_negctrl_site604],6.84
4,AAAGGTAAGCAGAATAGTACAGAAGAAAAAATATTT [XGTACX_site2941],6.8
5,TATCCTATAAATAATACATGCATATATATATATATT [TGCATGCA_site638],6.6
6,ATCAAAAAAAAAAAATTTTTTTTTTTGTTTGTTTCC [CACACA_negctrl_site1042],5.95
7,CAACATTTGAGACACACACACATACAAACAAACAAA [CACACA_site7538],6.87
8,AAATAGTATATAATATGTACATACATAAAAATGTAT [XGTACX_site3524],6.39
9,ACCTATGTATATTATACACACTCCAAACTATTATTT [CACACA_site1817],7.23
10,ATATGTATATATATTTGTACGTAAAATGAAATCTAA [XGTACX_site213],7.66
11,ATTACAAAAAAAAAAAAAAAAAAAAAAAAAAAAAAA [CACACA_negctrl_site448],6.02
12,TATACATAGATATATACACACATATATTTATATACA [CACACA_site6328],6.5
13,GAAAAATGAAGAGAACAAAATTTTATGATATATATA [GTGCAC_negctrl_site231],6.9
14,CCTTGAACCCCACTAACACACACACCCACGCTCAGA [CACACA_site8976],6.71
15,TTTCATAAATAAATATGTACATAATTAATAATAAAT [XGTACX_site5882],7.03
16,ATTTCACAGAAACACACACACAATATATTTCCTTTT [CACACA_site3904],6.72
17,ATAAAATACCTATAAACACACATATAAACAGACATA [CACACA_site7213],6.84
18,GTTATTGAAAAAATAGTGCAATATAACAAAGTAAAA,9.71
19,AAATAAAACAAACACACACACACATACACAAAAAAA [CACACA_site3849],6.91

row,Sequence,gcPBM binding intensity (ln)
1,GGAATGTAGGGTTTTACCAAAATAAAAATAACCATA [XGTACX_negctrl_site492],6.54
2,TATATATATATATGTACACACATATATACCTTTCAT [CACACA_site2679],9.31
3,TATATATTTCGGTGTGCACACTTTTTATTTTTATCC [CACACA_site1726],10.7
4,TAATTTCTTATGTATTGTACAAATAATATATGATAT [XGTACX_site611],6.49
5,CTTATATATATATCATGTACTTATGTATTTAAGAAT [XGTACX_site3307],6.48
6,ACAATAAAAATTTATGCATGTGAATTGAAAAAAAAA [TGCATGCA_site1037],6.33
7,CTTTTATTAAAATTCACACACATAAACTTTTATAAA [CACACA_site7027],6.21
8,AATATATACAATATATGTACATATATATACACATAT [XGTACX_site4190],6.64
9,TATATATGTATATATATAAATATATATATATATATA [TGCATGCA_negctrl_site605],8.97
10,GCATAAGAAAATAATTGTACAATTTACATACATAAA [XGTACX_site8286],6.47
11,TACTCAAAAATTAATTAGCATAATATATATAAAAAT [GTGCAC_negctrl_site613],6.58
12,TAATGAAATATACAGAGTACATTCTGTATATAGGAT [XGTACX_site7691],6.22
13,TATAAATATATATACACACACACATTAATACATATA [CACACA_site3488],6.78
14,ATAATATTTTCTTCTTATTGAATGCTTTAAATTTAC [CACACA_negctrl_site1273],6.46
15,GGGAAATATTGAAACACACACGAACGCACGTATTTC [CACACA_site6258],6.58
16,TTAAGAAGTTCTAAATGTACATACATAACCACGTTA [XGTACX_site7514],6.29
17,ACAAATAAGTTTTGTAGTACTGTGTATATATATATA [XGTACX_site6901],8.95
18,TTAAACCGTGGGAGCACACACACACCCCCACCCATA [CACACA_site331],6.79
19,CACTTAACACAAGAGTGTACACATATATATATATAT [XGTACX_site686],9.43

row,Sequence,gcPBM binding intensity (ln)
1,ATATTAGTAACACAGACACACAAAAAAAAAAAAAAA [CACACA_site2176],6.38
2,TTGTACGCAAAAAAAAAAAAAAAAAAATTAAAATTT [TGCATGCA_negctrl_site586],6.03
3,TTTTTCTCTTTAAGGTGTACAATAATACAGTAACCA [XGTACX_site300],6.34
4,TTTTTTATTATCAAAACATGCATTTTTTAAATGGAA [TGCATGCA_site557],6.25
5,AGGAAAATACCTTAATGTACATAGAAAAGTAACATT [XGTACX_site8011],6.18
6,TTTTATTTATTATTTACACACACGTAGGTGTCCATA [CACACA_site430],7.18
7,AATATGTATCCATACACACATACATTTTATTTGCAA [CACACA_site874],7.08
8,TATCTTATTTTATCTCGTACATAAAATTAAAAAATT [XGTACX_site3636],6.5
9,TTAAATTACTAATGTGCACACATACTAACGTTTAAA [CACACA_site3573],11
10,AATACATAAAAATAAAAATAAAATATAACTAATATG [CACACA_negctrl_site186],6.34
11,AAAACTATAATGAATAGTACATAAAAATGGATATAT [XGTACX_site6056],6.63
12,TTATACATATATTTAACACACATTTTATAAAGTGCC [CACACA_site1314],6.49
13,CATTTTATTTTAATATGTACTTAAAGAAAAAAAATT [XGTACX_site7670],6.18
14,TTTTGACATTAATTACTATAGTGTTCTTATAAAATT [TGCATGCA_negctrl_site589],6.81
15,TAATAATCCACAAGCACACACACACCCATATATATA [CACACA_site1267],6.95
16,TTAAGGATCCACGATACACACATATCATTCAACAAA [CACACA_site1924],6.31
17,ATATATAATATATGATGTACTTAATAATTTTTTTTT [XGTACX_site5715],6.26
18,TATATACACATGCGCACACACAAGTGGGAAATTTGG [CACACA_site6930],7.97
